Measurements as given in PubChem BioAssay AID652104 (National Center for Advancing Translational Sciences (NCATS), 2013).
Among all 410,000 compounds or so, about 7,200 (1.8%) were called active. This list was built around the results that the source calls inconclusive (neither active nor inactive); the mix of calls is not that of the screen. The call rests on the fitted dose curve; in most records, active means well fitted activation curve with a large enough effect; inconclusive means small, poorly fitted or top-dose-only effect, or another doubt; inactive means no such curve, though single readings can be large or run the other way. No potency is given beside an inconclusive call; the fits are too rough.
Potency means the concentration at half of the fitted maximal effect; tags describe the fitted curve by direction and shape.

Assay: qHTS of TDP-43 Inhibitors; further: nearly all actives have a fitted effect of over 50% in size
Conditions: TDP-43 expressing yeast growth rescue, BacTiter-Glo, 24 h; series mostly up to 46.1 µM
In short: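 Galactose-induced TDP-43 yeast, OD600=0.02, compound pinned; 24 hr, 30 deg C; BacTiter-Glo luminescence for growth. Inhibitors of TDP-43 toxicity read as activators.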
In the case of COc1ccc(-c2nc(C)c(CCNC(=O)c3c(F)cccc3F)s2)cc1, the Potency is reported as active: 10 µM.
With O=[N+]([O-])c1cccnc1Oc1ccc(F)cc1F the Potency was inconclusive [activator, single point].
In the case of Cn1c(NC(=O)c2ccc(F)cc2)nc2ccccc21, the Potency is reported as active: 28.2 µM.
With NC(=O)c1cc(C(=O)c2cccc(Cl)c2Cl)c[nH]1 the Potency was “inactive”.
For CC(=O)Nc1cc(-c2ccc(F)cc2)cn2c(-c3ccc(F)c(Cl)c3)cnc12, the Potency was active: 20 µM.
In the case of CC1Oc2ccccc2C=C1/C=N/Nc1ccc(C(=O)O)cc1 (stereo not drawn), the Potency is reported as inconclusive [activator, partial curve].
For COc1ccc(/C(N)=N/OC(=O)CN(C)S(=O)(=O)c2ccccc2)cc1, the Potency was active: 12.6 µM.
With CCCC1CCC(c2ccc(OCC)cc2)=CC1=O (stereo not drawn) the Potency was inconclusive [activator, partial curve].
In the case of CCCNc1nc(Nc2ccc(C)cc2)nc(N2CCCC2)n1, the Potency is reported as active: 11.2 µM.
For COC(=O)c1cccc(NC(=S)Nc2cc(Cl)ccc2OC)c1, the Potency was active: 22.4 µM.
For OC(Cn1cncn1)(c1ccccc1)c1ccccc1, the Potency was inconclusive [activator, single point].
With C=CCn1c2[n+](c3ccccc3c1=O)CCCCC2 the Potency was inconclusive [activator, partial curve].
With CCC(C)c1ccc(NC(=O)c2ccco2)cc1 (stereo not drawn) the Potency was inconclusive [activator, partial curve].
In the case of O=C(N/N=C/c1ccc(OCc2ccccc2)cc1)c1cc[n+](Cc2ccccc2)cc1, the Potency is reported as active: 20 µM.
In the case of Nc1ccc(Sc2cnn(-c3ccccc3)c(=O)c2Cl)cc1, the Potency is reported as inconclusive [activator, single point].
In the case of COCCNc1nc(Oc2ccc(Cl)c(Cl)c2)c2sccc2n1, the Potency is reported as inconclusive [activator, partial curve].
For COC(=O)c1sc2cccc(F)c2c1S(=O)(=O)Nc1ccc(C)cc1Cl, the Potency was inconclusive [activator, single point].
For N/C(Cc1ccc([N+](=O)[O-])cc1)=N\OC(=O)c1ccc2ccccc2c1, the Potency was active: 11.2 µM.
In the case of CCOCCCNC(=S)N(Cc1ccccc1)Cc1nc2ccccc2c(=O)[nH]1, the Potency is reported as “inactive”.
In the case of CCCCn1c(CCC(=O)O)nc2cc(S(=O)(=O)N3CCCC3)ccc21, the Potency is reported as “inactive”.
In the case of CS(=O)(=O)n1nc(-c2ccco2)nc1NCc1ccccc1Cl, the Potency is reported as “inactive”.
With O=C(CSc1nnc(-c2ccco2)o1)c1ccc(F)c(F)c1 the Potency was inconclusive [activator, partial curve].
In the case of O=C(/C=C/c1ccc2ccccc2n1)N1CCN(S(=O)(=O)c2ccccc2F)CC1, the Potency is reported as inconclusive [activator, partial curve].
In the case of COc1cccc(/C=N/Nc2ccc([N+](=O)[O-])cc2)c1O, the Potency is reported as inconclusive [activator, partial curve].
For Cc1nc2nc(SCC(=O)NCCc3ccc(Cl)cc3)nn2c(C)c1Cc1ccccc1Cl, the Potency was inconclusive [activator, single point].
With COc1ccc(Nc2ccc(C(=O)O)cc2[N+](=O)[O-])cc1 the Potency was inconclusive [activator, full curve, poor fit].
In the case of CCn1c(SCC(=O)Nc2nc(C)c(C)s2)nc2cccnc21, the Potency is reported as inconclusive [activator, partial curve].
For Cc1cccc(Nc2nc(C)nc3c2oc2ccccc23)c1, the Potency was inconclusive [activator, partial curve].
In the case of COc1ccccc1NC(=S)Nc1ccccn1, the Potency is reported as inconclusive [activator, full curve].
With CSc1ccccc1OCc1cc(C(=O)NCc2cccc(C)n2)no1 the Potency was inconclusive [activator, partial curve].
For CCOC(=O)Cc1csc(SCC(=O)Nc2cccc(Cl)c2)n1, the Potency was inconclusive [activator, single point].
With Cc1ccc(SCc2nc(-c3ccc(C(=O)Nc4cc(C)ccc4C)cc3)oc2C)cc1 the Potency was “inactive”.
With COc1cc(NC(=S)Nc2ccccn2)cc(OC)c1 the Potency was active: 10 µM.
In the case of Cc1ccccc1C(=O)OCC(=O)NCc1ccco1, the Potency is reported as inconclusive [activator, single point].
With CC(C)(C)OC(=O)NCCc1nnc(SCc2ccccc2Cl)o1 the Potency was inconclusive [activator, partial curve].
For COc1ccccc1-c1nnc2sc(-c3ccc(N(C)C)cc3)nn12, the Potency was inconclusive [activator, single point].
For CCOc1ccc(C(=O)Oc2cc(C)[nH]c(=O)c2[N+](=O)[O-])cc1, the Potency was inconclusive [activator, partial curve].
In the case of CCNC(=O)c1ccc2c(c1)C1C3CCC(C3)C1C(c1ccccc1)N2 (stereo not drawn), the Potency is reported as inconclusive [activator, single point].
With CCCS(=O)(=O)N1CCCC(C(=O)Oc2ccc(C)c(C)c2)C1 (stereo not drawn) the Potency was inconclusive [activator, partial curve].
For Cc1sc2ncnc(SCC(=O)Nc3nc(-c4ccc(F)c(F)c4)cs3)c2c1C, the Potency was inconclusive [activator, full curve, poor fit].
With CCN1CCN(C(c2ccc(SC)cc2)c2c(O)cc(C)n(Cc3ccco3)c2=O)CC1 (stereo not drawn) the Potency was “inactive”.
With Cc1nc(NC(=O)c2c(-c3ccccc3)c(-c3ccccc3)nn(C)c2=O)sc1C the Potency was “inactive”.
With N#Cc1cc(C(=O)c2ccccc2O)cn(-c2ccc(Cl)cc2)c1=O the Potency was “inactive”.
In the case of COc1ccc(C(NC(=O)C(C)C)c2c(O)ccc3ccccc23)cc1 (stereo not drawn), the Potency is reported as “inactive”.
In the case of CCSc1nnc(NC(=O)CSc2nccn2-c2cccc(C)c2C)s1, the Potency is reported as active: 15.8 µM.
For COC(=O)c1cc(C(=O)c2cccc(Cl)c2Cl)cn1C, the Potency was active: 17.8 µM.
In the case of O=C(NCc1ccccc1)C(c1ccncc1)n1c(=O)c(-c2cc3ccccc3[nH]2)nc2ccccc21 (stereo not drawn), the Potency is reported as inconclusive [activator, full curve, poor fit].
With COc1ccc(CCNC(=O)c2oc(=O)c3ccccc3c2-c2ccccc2)cc1OC the Potency was inconclusive [activator, single point].
For Fc1ccccc1-c1nc(NCC2CC2)nc2ccsc12, the Potency was active: 22.4 µM.
For Cc1nc(SCc2ccc(Br)cc2)[nH]c(=O)c1C, the Potency was inconclusive [activator, partial curve].
For COc1ccc([C@H]2C[C@H](n3cc(C4CC4)nn3)[C@@H](O)CN2CC2CCCCC2)cc1, the Potency was inconclusive [activator, partial curve, poor fit].
With CCN(C(=O)COC(=O)c1cc([N+](=O)[O-])ccc1N1CCOCC1)C1CCCCC1 the Potency was inconclusive [activator, partial curve].
In the case of CCOC(=O)c1ccc(N2C(=O)CC(N3CCN(C(=O)c4ccccc4)CC3)C2=O)cc1 (stereo not drawn), the Potency is reported as “inactive”.
With Cc1ccc2cc(C3C(C#N)=C(N)Oc4c3ccc3cccnc43)c(=O)[nH]c2c1 (stereo not drawn) the Potency was “inactive”.
For Cc1cccc(NC(=O)c2sc3nc4c(cc3c2N)CN(C(C)C)CC4)c1, the Potency was inconclusive [activator, full curve, poor fit].
In the case of COc1cc2ccccc2cc1C(=O)NC1CCCC1, the Potency is reported as active: 12.6 µM.
With O=c1ccnc(Sc2ncccc2[N+](=O)[O-])[nH]1 the Potency was inconclusive [activator, full curve, poor fit].
For CCc1cc(=S)n2c([nH]c3ccccc32)c1C#N, the Potency was inconclusive [activator, full curve, poor fit].
With CSc1ccccc1C(=O)NCc1ccccc1C the Potency was inconclusive [activator, single point].
With Clc1ccc(COn2c(-c3ccc(Cl)cc3Cl)nc3ncccc32)cc1 the Potency was inconclusive [activator, single point].
With CN(C)S(=O)(=O)c1ccc2c(c1)N(CC(=O)Nc1ccc(F)cc1)C(=O)CS2 the Potency was inconclusive [activator, partial curve].
With CCOc1ccc(-c2nnc(-c3ccco3)o2)cc1 the Potency was inconclusive [activator, partial curve].
With C=CCNC(=S)N/N=C/c1cn(-c2ccccc2)nc1-c1ccc(OC)cc1 the Potency was inconclusive [activator, partial curve].
In the case of C=CCNc1nc(N)c([N+](=O)[O-])c(NC2CCCCC2)n1, the Potency is reported as active: 7.08 µM.
In the case of CSc1ccc(C(=S)N2CCCCCC2)cc1, the Potency is reported as active: 11.2 µM.
In the case of Cc1cc(-c2ccc(C)c(S(=O)(=O)NCCc3ccc(S(N)(=O)=O)cc3)c2)on1, the Potency is reported as “inactive”.
For CCOc1ccc2nc(N3CCCC(C(=O)Nc4ccc(OC)c(Cl)c4)C3)sc2c1 (stereo not drawn), the Potency was “inactive”.
With CCC(=O)Nc1nc2ccccc2n1Cc1ccccc1Cl the Potency was inconclusive [activator, single point].
For C[C@H]1C(c2ccc(F)cc2)=NN(c2ccccc2)[C@@H]1CO, the Potency was active: 17.8 µM.
For Cc1nc2ccc(NC(=O)Cc3ccsc3)cc2s1, the Potency was inconclusive [activator, single point].
For O=C(NCC(c1ccco1)N1CCN(c2ccccc2F)CC1)c1ccco1 (stereo not drawn), the Potency was “inactive”.
For CC(Sc1nc2ccc(C(=O)c3ccccc3)cc2[nH]1)C(=O)O (stereo not drawn), the Potency was inconclusive [activator, single point].
For Cc1cc(C)n(CC(O)Cn2c(C)c(C)c3ccccc32)n1 (stereo not drawn), the Potency was inconclusive [activator, partial curve].
